{"source": "the supplement of paper PMC12582362", "note": "Where a name gives a salt, the structure may show the parent alone. About 30 (2%) of roughly 1,500 compounds showed activity.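 The calls were made as follows: active = robust z-score below -2; a few such results were not called.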 The list shows a part of the results.", "data": [{"tested_on": "optoTopBP1 Flp-In 293 T-REx (HEK293) cells", "test": "light-induced TopBP1 condensate (nuclear foci) count, plate-normalised robust z-score vs non-control wells; higher = more TopBP1 condensates (negative = condensation inhibitor), active = hit call of the paper", "settings": "10 µM; incubation time 2 h", "values": [{"smiles": "O=C1c2cccc3c2[C@H](CCC3)CN1[C@@H]1CN2CCC1CC2", "note": "[Palonosetron hydrochloride]", "light-induced TopBP1 condensate (z-score)": "inactive: -1.66"}, {"smiles": "O=C1Nc2ccccc2C1(c1ccc(O)cc1)c1ccc(O)cc1", "note": "[Oxyphenisatin]", "light-induced TopBP1 condensate (z-score)": "inactive: 1.08"}, {"smiles": "NCC[C@H](O)C(=O)N[C@@H]1C[C@H](N)[C@@H](O[C@H]2O[C@H](CN)[C@@H](O)[C@H](O)[C@H]2O)[C@H](O)[C@H]1O[C@H]1O[C@H](CO)[C@@H](O)[C@H](N)[C@H]1O", "note": "[Amikacin hydrate]", "light-induced TopBP1 condensate (z-score)": "inactive: 0.105"}, {"smiles": "O=C(O)CSCC(=O)NC1CCSC1=O", "note": "(stereo not given) [Erdosteine]", "light-induced TopBP1 condensate (z-score)": "inactive: -0.512"}, {"smiles": "Cc1nc2n(c(=O)c1CCN1CCC(c3noc4cc(F)ccc34)CC1)CCCC2O", "note": "(stereo not given) [Paliperidone]", "light-induced TopBP1 condensate (z-score)": "inactive: -0.0254"}, {"smiles": "CCN(CC)CCNC(=O)COc1ccc(OC)cc1", "note": "[Mefexamide hydrochloride]", "light-induced TopBP1 condensate (z-score)": "inactive: -0.0205"}, {"smiles": "Clc1ccc(C(Cn2ccnc2)OCc2csc3c(Cl)cccc23)c(Cl)c1", "note": "(stereo not given) [Sertaconazole nitrate]", "light-induced TopBP1 condensate (z-score)": "inactive: 0.206"}, {"smiles": "CCOc1ccc(NC(=O)CC(C)O)cc1", "note": "(stereo not given) [Bucetin]", "light-induced TopBP1 condensate (z-score)": "inactive: -0.145"}, {"smiles": "CC(=O)OCC1=C(C(=O)O)N2C(=O)[C@@H](NC(=O)Cc3cccs3)[C@H]2SC1", "note": "[Cephalothin sodium salt]", "light-induced TopBP1 condensate (z-score)": "inactive: -0.486"}, {"smiles": "CCCCc1nc(Cl)c(CO)n1Cc1ccc(-c2ccccc2-c2nnn[nH]2)cc1", "note": "[Losartan]", "light-induced TopBP1 condensate (z-score)": "inactive: 1.02"}, {"smiles": "CC1(C)S[C@@H]2[C@H](NC(=O)Cc3ccccc3)C(=O)N2[C@H]1C(=O)O", "note": "[Benzathine benzylpenicillin]", "light-induced TopBP1 condensate (z-score)": "inactive: 0.455"}, {"smiles": "CC1(C)S[C@@H]2[C@H](NC(=O)Cc3ccccc3)C(=O)N2[C@H]1C(=O)O", "note": "[Benzylpenicillin sodium]", "light-induced TopBP1 condensate (z-score)": "inactive: 0.664"}, {"smiles": "O=C1CCC(N2C(=O)c3ccccc3C2=O)C(=O)N1", "note": "(stereo not given) [Thalidomide]", "light-induced TopBP1 condensate (z-score)": "inactive: -0.291"}, {"smiles": "O=C1NCCN1CCN1CCC(c2cn(-c3ccc(F)cc3)c3ccc(Cl)cc23)CC1", "note": "[Sertindole]", "light-induced TopBP1 condensate (z-score)": "inactive: -0.879"}, {"smiles": "O=C1[C@@H]2[C@H]3CC[C@H](C3)[C@@H]2C(=O)N1CCCCN1CCN(c2ncccn2)CC1", "note": "[Tandospirone]", "light-induced TopBP1 condensate (z-score)": "inactive: 0.0494"}, {"smiles": "O=C1OC(CN2CCOCC2)CN1/N=C/c1ccc([N+](=O)[O-])o1", "note": "(stereo not given) [Furaltadone hydrochloride]", "light-induced TopBP1 condensate (z-score)": "inactive: 0.272"}, {"smiles": "Cc1ccsc1C(=CCCN1CCC[C@@H](C(=O)O)C1)c1sccc1C", "note": "[Tiagabine hydrochloride]", "light-induced TopBP1 condensate (z-score)": "inactive: 0.0241"}, {"smiles": "O=C(O)CCNC(=O)c1ccc(/N=N/c2ccc(O)c(C(=O)O)c2)cc1", "note": "[Balsalazide Sodium]", "light-induced TopBP1 condensate (z-score)": "inactive: -0.083"}, {"smiles": "Cc1cccc(Nc2ccccc2C(=O)O)c1C", "note": "[Mefenamic acid]", "light-induced TopBP1 condensate (z-score)": "inactive: 1.39"}, {"smiles": "CCC(C)n1ncn(-c2ccc(N3CCN(c4ccc(OCC5COC(Cn6cncn6)(c6ccc(Cl)cc6Cl)O5)cc4)CC3)cc2)c1=O", "note": "(stereo not given) [Itraconazole]", "light-induced TopBP1 condensate (z-score)": "inactive: -0.757"}, {"smiles": "CCOc1cc(N)c(Cl)cc1C(=O)NCC1CN(Cc2ccc(F)cc2)CCO1", "note": "(stereo not given) [Mosapride]", "light-induced TopBP1 condensate (z-score)": "inactive: 0.646"}, {"smiles": "C[n+]1ccccc1/C=N/O", "note": "[Pralidoxime chloride]", "light-induced TopBP1 condensate (z-score)": "inactive: 0.129"}, {"smiles": "C[C@H]1[C@H](OC(=O)CCC(=O)O)O[C@@H]2O[C@@]3(C)CC[C@H]4[C@H](C)CC[C@@H]1[C@@]24OO3", "note": "[Artesunate]", "light-induced TopBP1 condensate (z-score)": "inactive: -0.0235"}, {"smiles": "CC(C)NCC(O)c1cc(O)cc(O)c1", "note": "(stereo not given) [Metaproterenol sulfate, orciprenaline sulfate]", "light-induced TopBP1 condensate (z-score)": "inactive: 1.02"}, {"smiles": "CCCCCCCCCCCCCCCCCCCCCC(=O)Nc1ccn([C@@H]2O[C@H](CO)[C@@H](O)[C@@H]2O)c(=O)n1", "note": "[Enocitabine]", "light-induced TopBP1 condensate (z-score)": "inactive: -0.125"}, {"smiles": "CC(C)NCC(O)COc1cccc2[nH]c3ccccc3c12", "note": "(stereo not given) [Carazolol]", "light-induced TopBP1 condensate (z-score)": "inactive: -1.07"}, {"smiles": "C#CCN(C)CCCOc1ccc(Cl)cc1Cl", "note": "[Clorgyline hydrochloride]", "light-induced TopBP1 condensate (z-score)": "inactive: 0.37"}, {"smiles": "O=C(O)CN(CCN(CC(=O)O)CC(=O)O)CCN(CC(=O)O)CC(=O)O", "note": "[Pentetic acid]", "light-induced TopBP1 condensate (z-score)": "inactive: -0.477"}, {"smiles": "Cn1c(=O)c2c(ncn2CCO)n(C)c1=O", "note": "[Etofylline]", "light-induced TopBP1 condensate (z-score)": "inactive: 0.502"}, {"smiles": "COc1ccccc1N1CCN(CCCNc2cc(=O)n(C)c(=O)n2C)CC1", "note": "[Urapidil hydrochloride]", "light-induced TopBP1 condensate (z-score)": "inactive: -0.626"}, {"smiles": "COc1nc(N)nc2c1ncn2[C@@H]1O[C@H](CO)[C@@H](O)[C@@H]1O", "note": "[Nelarabine]", "light-induced TopBP1 condensate (z-score)": "inactive: 1.01"}, {"smiles": "OC[C@H]1O[C@H](O[C@H]2O[C@H](CO)[C@@H](O)[C@H](O)[C@H]2O)[C@H](O)[C@@H](O)[C@@H]1O", "note": "[Trehalose dihydrate]", "light-induced TopBP1 condensate (z-score)": "inactive: -0.24"}, {"smiles": "CCC(=O)OCC(=O)[C@@]1(OC(=O)CC)[C@@H](C)C[C@H]2[C@@H]3CCC4=CC(=O)C=C[C@]4(C)[C@@]3(Cl)[C@@H](O)C[C@@]21C", "note": "[Beclomethasone dipropionate]", "light-induced TopBP1 condensate (z-score)": "inactive: 0.0967"}, {"smiles": "CCN(CC)Cc1cc(Nc2ccnc3cc(Cl)ccc23)ccc1O", "note": "[Amodiaquin dihydrochloride dihydrate]", "light-induced TopBP1 condensate (z-score)": "inactive: -1.46"}, {"smiles": "COCC(=O)O[C@]1(CCN(C)CCCc2nc3ccccc3[nH]2)CCc2cc(F)ccc2[C@@H]1C(C)C", "note": "[Mibefradil]", "light-induced TopBP1 condensate (z-score)": "active: -2.07"}, {"smiles": "CN1CCOC(c2ccccc2)c2ccccc2C1", "note": "(stereo not given) [Nefopam hydrochloride]", "light-induced TopBP1 condensate (z-score)": "inactive: -0.779"}, {"smiles": "CN1CCC(=C2c3ccccc3CCc3sccc32)CC1", "note": "[Pizotifen malate]", "light-induced TopBP1 condensate (z-score)": "inactive: 1.2"}, {"smiles": "CCN(CC)CCOc1ccc(C(=C(Cl)c2ccccc2)c2ccccc2)cc1", "note": "[Clomiphene citrate (Z,E)]", "light-induced TopBP1 condensate (z-score)": "inactive: -0.198"}, {"smiles": "CCCCNc1ccc(C(=O)OCCN(C)C)cc1", "light-induced TopBP1 condensate (z-score)": "inactive: -0.604"}, {"smiles": "CN(C)[C@@H]1C(O)=C(C(=O)NCNCCCC[C@H](N)C(=O)O)C(=O)[C@@]2(O)C(O)=C3C(=O)c4c(O)cccc4[C@@](C)(O)[C@H]3C[C@@H]12", "note": "[Lymecycline]", "light-induced TopBP1 condensate (z-score)": "inactive: 0.0668"}, {"smiles": "O=C(Cn1cnnn1)N[C@@H]1C(=O)N2C(C(=O)O)=C(CSc3nncs3)CS[C@H]12", "note": "[Ceftezole]", "light-induced TopBP1 condensate (z-score)": "inactive: -0.707"}, {"smiles": "CCCCCOC(=O)Nc1nc(=O)n([C@@H]2O[C@H](C)[C@@H](O)[C@H]2O)cc1F", "note": "[Capecitabine]", "light-induced TopBP1 condensate (z-score)": "inactive: 0.43"}, {"smiles": "CCC1NC(=O)c2cc(S(N)(=O)=O)c(Cl)cc2N1", "note": "(stereo not given) [Quinethazone]", "light-induced TopBP1 condensate (z-score)": "inactive: -0.46"}, {"smiles": "COc1ccccc1N1CCN(CCCCNC(=O)c2ccc3ccccc3c2)CC1", "light-induced TopBP1 condensate (z-score)": "inactive: -1"}, {"smiles": "Cc1cnc(C(=O)NCCc2ccc(S(=O)(=O)NC(=O)NC3CCCCC3)cc2)cn1", "note": "[Glipizide]", "light-induced TopBP1 condensate (z-score)": "inactive: 1.91"}, {"smiles": "O=C1[C@H](CC[C@H](O)c2ccc(F)cc2)[C@@H](c2ccc(O)cc2)N1c1ccc(F)cc1", "note": "[Ezetimibe]", "light-induced TopBP1 condensate (z-score)": "inactive: -0.209"}, {"smiles": "OC[C@H]1O[C@@H](c2ccc(Cl)c(Cc3ccc(O[C@H]4CCOC4)cc3)c2)[C@H](O)[C@@H](O)[C@@H]1O", "note": "[Empagliflozin]", "light-induced TopBP1 condensate (z-score)": "inactive: 0.47"}, {"smiles": "CN1CCN(c2c(F)cc3c(=O)c(C(=O)O)cn4c3c2SCC4)CC1", "note": "[Rufloxacin]", "light-induced TopBP1 condensate (z-score)": "inactive: -0.0947"}, {"smiles": "COC(=O)C1=C(C)NC(C)=C(C(=O)OCC(C)C)C1c1ccccc1[N+](=O)[O-]", "note": "(stereo not given) [Nisoldipine]", "light-induced TopBP1 condensate (z-score)": "inactive: 0.901"}, {"smiles": "CN(C)CCOC(c1ccc(Cl)cc1)c1ccccn1", "note": "(stereo not given) [Carbinoxamine maleate salt]", "light-induced TopBP1 condensate (z-score)": "inactive: 0.304"}, {"smiles": "O=C1CCc2ccc(OCCCCN3CCN(c4cccc(Cl)c4Cl)CC3)cc2N1", "note": "[Aripiprazole]", "light-induced TopBP1 condensate (z-score)": "inactive: 0.241"}, {"smiles": "NC(=O)NC1NC(=O)NC1=O", "note": "(stereo not given) [Allantoin]", "light-induced TopBP1 condensate (z-score)": "inactive: 0.7"}, {"smiles": "CNCc1cc(-c2ccccc2F)n(S(=O)(=O)c2cccnc2)c1", "note": "[Vonoprazan]", "light-induced TopBP1 condensate (z-score)": "inactive: -0.12"}, {"smiles": "O=C1C(O)=C([C@H]2CC[C@H](c3ccc(Cl)cc3)CC2)C(=O)c2ccccc21", "note": "[Atovaquone]", "light-induced TopBP1 condensate (z-score)": "inactive: -0.809"}, {"smiles": "CC(C)NCC(O)c1ccc(O)c(O)c1", "note": "(single isomer, unassigned; (-)) [(-)-Isoproterenol hydrochloride]", "light-induced TopBP1 condensate (z-score)": "inactive: 1.04"}, {"smiles": "Cc1ccccc1C(OCCN(C)C)c1ccccc1", "note": "(stereo not given) [Orphenadrine hydrochloride]", "light-induced TopBP1 condensate (z-score)": "inactive: -1.06"}, {"smiles": "C#C[C@]1(O)CC[C@H]2[C@@H]3CCC4=C(CCC(=O)C4)[C@H]3CC[C@@]21C", "note": "[Norethynodrel]", "light-induced TopBP1 condensate (z-score)": "inactive: 0.785"}, {"smiles": "NS(=O)(=O)c1cc2c(cc1Cl)NC(CC1CCCC1)NS2(=O)=O", "note": "(stereo not given) [Cyclopenthiazide]", "light-induced TopBP1 condensate (z-score)": "inactive: 0.348"}, {"smiles": "CC(C)(C)NCC(O)c1cc(O)cc(O)c1", "note": "(stereo not given) [Terbutaline hemisulfate]", "light-induced TopBP1 condensate (z-score)": "inactive: 0.791"}, {"smiles": "CC[N+](CC)(CC)CCOc1cccc(OCC[N+](CC)(CC)CC)c1OCC[N+](CC)(CC)CC", "note": "[Gallamine triethiodide]", "light-induced TopBP1 condensate (z-score)": "inactive: 0.722"}, {"smiles": "CCOC(=O)[N-]c1c[n+](N2CCOCC2)no1", "note": "[Molsidomine]", "light-induced TopBP1 condensate (z-score)": "inactive: -0.096"}, {"smiles": "NCc1ccc(S(N)(=O)=O)cc1", "note": "[Mafenide hydrochloride]", "light-induced TopBP1 condensate (z-score)": "inactive: -0.165"}, {"smiles": "CN[C@@H]1[C@H](O[C@H]2[C@H](O[C@H]3[C@H](O)[C@@H](O)[C@H](NC(=N)N)[C@@H](O)[C@@H]3NC(=N)N)O[C@@H](C)[C@]2(O)CO)O[C@@H](CO)[C@H](O)[C@H]1O", "note": "[Dihydrostreptomycin sulfate]", "light-induced TopBP1 condensate (z-score)": "inactive: 0.864"}, {"smiles": "CC/C(=C(\\c1ccccc1)c1ccc(OCCN(C)C)cc1)c1ccccc1", "note": "[Tamoxifen citrate]", "light-induced TopBP1 condensate (z-score)": "inactive: 0.351"}, {"smiles": "CCc1oc2ccccc2c1C(=O)c1cc(Br)c(O)c(Br)c1", "note": "[Benzbromarone]", "light-induced TopBP1 condensate (z-score)": "inactive: 0.386"}]}]}
